Whole data set: some 13,000 compounds, median “IFI” near 4, cut for the highest 2% near 17. Some of the results follow.
assay: GSK_TCMDC: Inhibition Frequency Index (IFI). The number of non-kinase HTS assays where a compound showed > 50 % inhibition, expressed as a percentage of the number of such assays in which the compound was tested (-0 is zero); assay type: functional

| SMILES | IFI |
| --- | --- |
| CCOC(=O)c1cncc(/C=C/c2cc(C)cnc2N)c1 | 0% |
| CN1CCC(N(Cc2ccc(-c3ccc(C(F)(F)F)cc3)cc2)C(=O)Cn2c(SCc3cccc(F)c3F)cc(=O)c3c2CCC3)CC1 | 9.03% |
| Cc1ccc2[nH]c3c(NCCCN4CCOCC4)ncnc3c2c1 | 0% |
| Cc1cccc2nc(-c3cccc(-c4cccc(NC(=O)Nc5ccc(F)c(F)c5F)c4)c3)[nH]c12 | 6.86% |
| O=C(NC1CCN(Cc2ccccc2)CC1)c1ccc(-c2nc3cc(Cl)c(F)cc3[nH]2)cc1 | 1.45% |
| NC(=O)c1ccc(-n2cnc3cc(F)ccc32)cc1OCc1ccccc1C(F)(F)F.NC(=O)c1ccc(-n2cnc3ccc(F)cc32)cc1OCc1ccccc1C(F)(F)F | 8.59% |
| O=C(/C=C/c1ccc(Cl)c(Cl)c1)NCCCCCN1CCC(NC(=O)Nc2cccc(Cl)c2F)CC1 | 6% |
| COCc1cc(C)nc2sc(C(=O)Nc3cc(C(C)(C)C)ccc3O)c(N)c12 | 3.57% |
| CCn1c(-c2nonc2N)nc2c(-c3cccc(NC(=O)NCc4ccccc4)c3)ncc(OCCCN)c21 | 12.9% |
| Cc1cccc2nc(-c3cccc(-c4ccc(NC(=O)NC5CC5c5ccccc5)cc4)c3)[nH]c12 (stereo not drawn) | 4% |
| CCCc1ccc(S(=O)(=O)NC2CCN(c3ccnc(Nc4ccc(OC)cc4)n3)C2)cc1 (stereo not drawn) | 14.7% |
| Cc1cc(NC(=O)NCCN2CCC(NS(=O)(=O)c3cccc(Br)c3)C2)c2ccccc2n1 (stereo not drawn) | 0.87% |
| Cc1cccc2nc(-c3ccc(-c4ccc(NC(=O)Nc5ccsc5)cc4)cc3)[nH]c12 | 8% |
| CCCC1(NC[C@@H](O)[C@H](Cc2ccccc2)NC(=O)c2cc(NCC)cc(N3CCCCS3(=O)=O)c2)CCCCC1 | 2.88% |
| COc1ccc(CNCCCCCCCNCc2ccc(Cl)c(Cl)c2)cc1Cl | 4.32% |
| COc1ccc(NC(=O)c2ccc(-c3nc(-c4ccccc4)cs3)cc2)cc1N1CCN(C)CC1 | 6.85% |
| Cc1cccn2c(=O)c3cc(C(=O)NC(C)c4ccccc4)c(=N)n(CCN4CCOCC4)c3nc12 (stereo not drawn) | 2.86% |
| Cn1cnc(CCNC(=O)c2cccc(-c3cccc(-c4nc5cc(C(F)(F)F)ccc5[nH]4)c3)c2)c1 | 5.66% |
| COc1ccc2nc3cc(Cl)ccc3c(NCCCCCCNc3c4ccc(Cl)cc4nc4ccc(OC)cc34)c2c1 | 3.65% |
| Oc1ccc(-c2ccccc2)cc1CN1CCCCCC1 | 0.84% |
| Cc1nnsc1C(=O)Nc1ccc(-c2ccc(-c3nc4ccccc4[nH]3)s2)cc1 | 6.19% |
| CN(C)CCOc1cc(NC(=O)Nc2ccc(-c3ccncc3)c(C(F)(F)F)c2)ccc1Cl | 4.44% |

| SMILES | IFI |
| --- | --- |
| N#CCCn1nc(-c2ccc(Cl)cc2)c2c(c1=O)CCCC2 | -0% |
| CC(=O)c1ccc(-c2cccc3c(CC(=O)Nc4ccc5nccc(N6CCN(C)CC6)c5c4)cccc23)cc1 | 7.14% |
| O=[N+]([O-])c1ccc(/C=N/O)nc1 | 23.4% |
| CCN(Cc1ccccc1)C1CCN(Cc2cc(Br)ccc2O)CC1 | 2.14% |
| C=CCOc1ccccc1CNCC(O)c1cc(Br)cs1 (stereo not drawn) | 1.64% |
| N#Cc1cccc(CN2CCCN(Cc3cccc(C(=O)Nc4ccc(Cl)cc4)c3)CC2)c1 | 5% |
| Oc1ccc(CCNCCCCCCNCCc2ccc(Cl)cc2)c(Cl)c1O | 8.73% |
| CN(C)CCCN(C)C(=O)c1cc2cc(-c3ccccc3)ccc2n1S(=O)(=O)c1ccccc1 | 6.94% |
| Cc1nc(C)c(-c2ccc(C(=O)c3ccc(Cl)cc3)cc2)c(O)c1Br | 4.41% |
| CCC(C)(C)c1ccc(S(=O)(=O)Nc2ccc(Cl)c(OCCN3CCCCC3)c2)cc1 | 43.1% |
| COc1cc(OC)c2c(C)cc(NCCCn3ccnc3)nc2c1 | 1.47% |
| O=C(/C=C/c1ccc(Cl)c(Cl)c1)NCCCCCN1CCC(c2c[nH]c3ccccc23)CC1 | 5.96% |
| COc1ccc2nccc(N/N=C/c3cccc([N+](=O)[O-])c3)c2c1 | 2.9% |
| CCCN(CCC)C(=O)c1cc(C(=O)N[C@@H](Cc2ccccc2)[C@H](O)CNCc2cccc(OC)c2)cc(N2CCCCS2(=O)=O)c1 | 1.47% |
| Cc1[nH]c2ccccc2c(=O)c1Br | -0% |
| CC(C)Cc1ccc(N2CCN(CCCCNC(=O)c3ccc(NC(=O)c4ccc(Cl)c(Cl)c4)cc3)CC2)cc1 | -0% |
| Cc1nc2ccccc2n1C1CC2CCC(C1)N2CCCC1(c2ccccc2)CCN(C(=O)OCc2ccccc2)CC1 (stereo not drawn) | 12.8% |
| CCOC(=O)CCCOc1cc(Cc2cnc(N)nc2N)cc(OC)c1OC | 1.46% |
| COc1cc2cc(-c3nc4ccccc4[nH]3)c(N)nc2cc1OC | 10.3% |
| CN(Cc1cc(C(F)(F)F)cc(C(F)(F)F)c1)C(=O)C1CNCC1c1ccc(F)cc1 (stereo not drawn) | 2.5% |
| CC(C)(CNCc1cc(Cl)cc(Cl)c1)c1nc(-c2ccnc(N)n2)c(-c2ccc(Cl)c(O)c2)[nH]1 | 10.6% |

Reference: ChEMBL document CHEMBL1157539, “Thousands of chemical starting points for antimalarial lead identification” (Nature, 2010)
